Among the data in PMC12136788 are binding signal values, retold here.

The list shows a part of the results.

Sequences and labels used below:
B1: chr17:76725537:76725647:-|CDS|ENSG00000070495|unk|FALSE|unique (ssRNA)
RNA: GGGAGUUCUACAGUCCGACGAUCUACUCAGUGAAGAUGAAGAUGAAAUACUACAUCGAGUACAUGGAGAGCACUCGAGAUGAUAGUCCCCUUUACAUCUUUGACAGCAGCUAUGGUGAACACCCUAAAAGAAGGAAACUUUUGCAACAGAGGAUUGAGCAUCA
B2: chr20:45293444:45293825:-|three_prime_utr|ENSG00000124159|control|control|control (ssRNA)
RNA: GGGAGUUCUACAGUCCGACGAUCCGGGGCGGAGGCGCUGGCGGGCUUCCGGCAUUGAGCUGAGUUGGCCUCGCCCGGACCAUUAGGCGGACUGCGGCGUCAGGGGGAUAGCGGGUGGUGAGGGAAGGGGCACGUGCUAGACCGCAACAGAGGAUUGAGCAUCA
B3: chr17:41822664:41822765:+|3pUTR|ENSG00000141756|msi1|FALSE|unique (ssRNA)
RNA: GGGAGUUCUACAGUCCGACGAUCUUCCUUAAAAUGUUUGGAUUUGCAAAGCCAAUUUGGGGCCUGUGGAGCCUGGGGUUGGAUAGGGCCAUGGCUGGUCCCCCACCAUACCUCCCCUCCACAUCACUGACACAGCUGAGCUUGCAACAGAGGAUUGAGCAUCA
B4: chr22:41636480:41636706:+|CDS|ENSG00000196419|unk|FALSE|unique (ssRNA)
RNA: GGGAGUUCUACAGUCCGACGAUCAUGGGCCACGGAUCUGACUACUCACUCAGUGAAGUGCUGUGGGUCUGUGCCAACCUCUUUAGUGAUGUCCAAUUCAAGAUGAGUCAUAAGAGGAUCAUGCUGUUCACCAAUGAAGACAACCAACAGAGGAUUGAGCAUCA
B5: chr12:14501823:14501924:+|3pUTR|ENSG00000171681|unk|total|mutant (ssRNA)
RNA: GGGAGUUCUACAGUCCGACGAUCUUUUGUUGUUUGCUCUUUUGCUUUAAAUAUUCUCCAAAUUACCAUUUAUGCAACAUGGUCCGGGUUAAUACUGCAUGGUAUUCAUUUAUCUUGUUUCAUGAACUUUCCAGUACUGUACAACAACAGAGGAUUGAGCAUCA
B6: chr5:137939581:137939637:-|3pUTR|ENSG00000031003|msi1_unk|total|mutant (ssRNA)
RNA: GGGAGUUCUACAGUCCGACGAUCUGUCCGUAAAAUUUUGCAAUUCGCUGGUCACACAGCUCCCGGAUGAAGAUAACAGUUGGCCGACCAAAAGGUGACCUCGCUCCGUAUAUUGAAAACACACACCACACAUCACACACAGAACAACAGAGGAUUGAGCAUCA

The test addresses T1, UNK ZnF1-6 (called full-length) (human, UniProt Q9C0B0 30-357).
T1 sequence: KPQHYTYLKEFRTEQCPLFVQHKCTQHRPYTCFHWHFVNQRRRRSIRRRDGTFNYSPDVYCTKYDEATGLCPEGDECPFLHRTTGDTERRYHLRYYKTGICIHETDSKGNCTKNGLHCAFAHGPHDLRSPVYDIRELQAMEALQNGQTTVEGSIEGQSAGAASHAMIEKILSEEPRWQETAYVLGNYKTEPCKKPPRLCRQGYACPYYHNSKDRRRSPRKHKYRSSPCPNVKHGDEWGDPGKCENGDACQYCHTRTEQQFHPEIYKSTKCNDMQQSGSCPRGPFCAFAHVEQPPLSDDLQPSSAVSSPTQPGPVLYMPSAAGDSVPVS
Description: nsRBNS (natural sequence RNA bind-n-seq); RBNS binding buffer (assumed for nsRBNS): 25 mM Tris pH 7.5, 150 mM KCl, 3 mM MgCl2, 0.01% Triton X-100, 500 ug/ml BSA, 20 U/ml SUPERase-In, 4 C; UNK is unkempt and MSI1 is Musashi-1; names of the RNAs are library labels; protein concentration not given here; high values mean tight binding.
B1: the binding signal stood at 0.475 enrichment R.

The molecule B2 showed a binding signal of 1.16 enrichment R.

Molecule B3 came in with a binding signal of 0.73 enrichment R.

Consider B4, for which the binding signal amounted to 0.565 enrichment R.

The molecule B5 had a binding signal of 0.446 enrichment R.

As for B6, the binding signal was 0.877 enrichment R.
